# From patent US8067379B2, “Sulfur compounds as inhibitors of hepatitis C virus NS3 serine protease” (Schering Corporation, priority 2004, dated 2011)
# Target: Recombinant heterodimeric HCV NS3/NS4A protease (strain 1a) (Hepatitis C virus genotype 1a, UniProt P27958)
# Test: Spectrophotometric assay for HCV serine protease inhibitory activity (chromogenic ester substrates)
# Assay type: biochemical
# Settings: Table 3A; cells that print a number instead of a class symbol; read-out: Ki* Range
row,SMILES,Ki
1,C=CCNC(=O)C(=O)[C@H](CC1CC1)NC(=O)[C@@H]1[C@@H]2[C@H](CN1C(=O)[C@@H](NC(=O)NC1(CS(=O)(=O)C(C)(C)C)CCCCC1)C(C)(C)C)C2(C)C [Compound 695],5 nM
2,C=CCNC(=O)C(=O)[C@H](CCC1CC1)NC(=O)[C@@H]1[C@@H]2[C@H](CN1C(=O)[C@@H](NC(=O)NC1(CS(=O)(=O)C(C)(C)C)CCCCC1)C(C)(C)C)C2(C)C [Compound 701],6 nM
3,CC(C)(C)[C@H](NC(=O)NC1(CS(=O)(=O)C(C)(C)C)CCCCC1)C(=O)N1C[C@H]2[C@@H]([C@H]1C(=O)N[C@@H](CCC1CC1)C(=O)C(=O)NC1CC1)C2(C)C [Compound 730],5.6 nM
4,CC(C)(C)[C@H](NC(=O)NC1(CS(=O)(=O)C(C)(C)C)CCCCC1)C(=O)N1C[C@H]2[C@@H]([C@H]1C(=O)N[C@H](CCC1CC1)C(=O)C(=O)NC1CC1)C2(C)C [Compound 731],64 nM

# Same assay, conditions: Table 3A; class symbols; read-out: Ki* Range
row,SMILES,Ki
1,C=CCNC(=O)C(=O)C(CC1CCC1)NC(=O)[C@@H]1[C@@H]2[C@H](CN1C(=O)[C@@H](NC(=O)NC1(C3CCCS3(=O)=O)CCCCC1)C1(C)CCCCC1)C2(C)C (stereo partly drawn) [Compound 672],< 75 nM
2,C=CCNC(=O)C(=O)C(CC1CC1)NC(=O)[C@@H]1C[C@@H](C#N)CN1C(=O)[C@@H](NC(=O)NC1(CS(=O)(=O)C(C)(C)C)CCCCC1)C(C)(C)C (stereo partly drawn) [Compound 673],> 250 nM
3,C=CCNC(=O)C(=O)[C@H](CCC)NC(=O)[C@@H]1[C@@H]2[C@H](CN1C(=O)[C@@H](NC(=O)NC1(C3CCCS3(=O)=O)CCCCC1)C1CCCCC1)C2(C)C (stereo partly drawn) [Compound 674],< 75 nM
4,CCCC(NC(=O)[C@@H]1[C@@H]2[C@H](CN1C(=O)[C@@H](NC(=O)NC1(CS(=O)(=O)C(C)(C)COC3CCCCO3)CCCCC1)C1(C)CCCCC1)C2(C)C)C(=O)C(=O)NC1CC1 (stereo partly drawn) [Compound 675],< 75 nM
5,CC1([C@H](NC(=O)NC2(CS(=O)(=O)C(C)(C)COC3CCCCO3)CCCCC2)C(=O)N2C[C@H]3[C@@H]([C@H]2C(=O)NC(CCC2CC2)C(=O)C(=O)NC2CC2)C3(C)C)CCCCC1 (stereo partly drawn) [Compound 676],< 75 nM
6,CCCC(NC(=O)[C@@H]1[C@@H]2[C@H](CN1C(=O)[C@@H](NC(=O)NC1(CS(=O)(=O)C(C)(C)CO)CCCCC1)C1(C)CCCCC1)C2(C)C)C(=O)C(=O)NC1CC1 (stereo partly drawn) [Compound 678],< 75 nM
7,CC1([C@H](NC(=O)NC2(CS(=O)(=O)C(C)(C)CO)CCCCC2)C(=O)N2C[C@H]3[C@@H]([C@H]2C(=O)NC(CCC2CC2)C(=O)C(=O)NC2CC2)C3(C)C)CCCCC1 (stereo partly drawn) [Compound 679],< 75 nM
8,C=CCNC(=O)C(=O)C(CCC1CC1)NC(=O)[C@@H]1CC2(CN1C(=O)[C@@H](NC(=O)NC1(CS(=O)(=O)C(C)(C)C)CCCCC1)C(C)(C)C)SCCS2 (stereo partly drawn) [Compound 680],< 75 nM
9,CC(C)(C)[C@H](NC(=O)NC1(C2CCCS2(=O)=O)CCCCC1)C(=O)N1C[C@H]2[C@@H]([C@H]1C(=O)NC(CCC1CC1)C(=O)C(=O)NC1CC1)C2(C)C (stereo partly drawn) [Compound 681],< 75 nM
10,C=CCNC(=O)C(=O)C(CC1CC1)NC(=O)[C@@H]1C[C@@H](CNC(C)=O)CN1C(=O)[C@@H](NC(=O)NC1(CS(=O)(=O)C(C)(C)C)CCCCC1)C(C)(C)C (stereo partly drawn) [Compound 682],> 250 nM
11,C=CCNC(=O)C(=O)C(CCCC)NC(=O)[C@@H]1C[C@@H](CNC(C)=O)CN1C(=O)[C@@H](NC(=O)NC1(CS(=O)(=O)C(C)(C)C)CCCCC1)C(C)(C)C (stereo partly drawn) [Compound 683],> 250 nM
12,CC(=O)NC[C@@H]1C[C@@H](C(=O)NC(CC2CC2)C(=O)C(=O)NC2CC2)N(C(=O)[C@@H](NC(=O)NC2(CS(=O)(=O)C(C)(C)C)CCCCC2)C(C)(C)C)C1 (stereo partly drawn) [Compound 684],> 250 nM
13,C#CCCC(NC(=O)[C@@H]1[C@@H]2[C@H](CN1C(=O)[C@@H](NC(=O)NC1(CS(=O)(=O)C(C)(C)CO)CCCCC1)C1(C)CCCCC1)C2(C)C)C(=O)C(=O)NC1CC1 (stereo partly drawn) [Compound 685],< 75 nM
14,CCCC(NC(=O)[C@@H]1[C@@H]2[C@H](CN1C(=O)[C@@H](NC(=O)NC1(CS(=O)(=O)C(C)(C)C=O)CCCCC1)C1(C)CCCCC1)C2(C)C)C(=O)C(=O)NC1CC1 (stereo partly drawn) [Compound 686],< 75 nM
15,CCC[C@H](NC(=O)[C@@H]1[C@@H]2[C@H](CN1C(=O)[C@@H](NC(=O)NC1(CS(=O)(=O)C(C)(C)C)CCCCC1)C1(C)CCCCC1)C2(C)C)C(=O)C(=O)NC1CC1 [Compound 687],< 75 nM
16,CCC[C@H](NC(=O)[C@@H]1[C@@H]2[C@H](CN1C(=O)[C@@H](NC(=O)NC1(C3CCCS3(=O)=O)CCCCC1)C(C)(C)C)C2(C)C)C(=O)C(=O)NC1CC1 (stereo partly drawn) [Compound 688],< 75 nM
17,C=CCNC(=O)C(=O)[C@H](CC1CC1)NC(=O)[C@@H]1[C@@H]2[C@H](CN1C(=O)[C@@H](NC(=O)NC1(C3CCCS3(=O)=O)CCCCC1)C1(C)CCCCC1)C2(C)C (stereo partly drawn) [Compound 690],< 75 nM
18,CCCC(NC(=O)[C@@H]1[C@@H]2[C@H](CN1C(=O)[C@@H](NC(=O)NC1(CS(=O)(=O)C(C)(C)C)CCCCC1)C1(C)CCCCC1)C2(C)C)C(=O)C(=O)NCc1ccccc1 (stereo partly drawn) [Compound 691],< 75 nM
19,CC1([C@H](NC(=O)NC2(CS(=O)(=O)C(C)(C)C)CCCCC2)C(=O)N2C[C@H]3[C@@H]([C@H]2C(=O)NC(CC2CC2)C(=O)C(=O)NCc2ccccc2)C3(C)C)CCCCC1 (stereo partly drawn) [Compound 693],< 75 nM
20,CCCCC(NC(=O)[C@@H]1[C@@H]2[C@H](CN1C(=O)[C@@H](NC(=O)NC1(CS(=O)(=O)C(C)(C)C)CCCCC1)C1(C)CCCCC1)C2(C)C)C(=O)C(=O)NCc1ccccc1 (stereo partly drawn) [Compound 694],< 75 nM
21,CCC[C@H](NC(=O)[C@@H]1[C@H]2OC(C)(C)O[C@H]2CN1C(=O)[C@@H](NC(=O)NC1(CS(=O)(=O)C(C)(C)C)CCCCC1)C(C)(C)C)C(=O)C(=O)NC1CC1 [Compound 696],< 75 nM

row,SMILES,Ki
1,C=CCNC(=O)C(=O)[C@H](CC1CC1)NC(=O)[C@@H]1[C@H]2OC(C)(C)O[C@H]2CN1C(=O)[C@@H](NC(=O)NC1(CS(=O)(=O)C(C)(C)C)CCCCC1)C(C)(C)C [Compound 697],< 75 nM
2,C=CCNC(=O)C(=O)[C@@H](CCCC)NC(=O)[C@@H]1[C@@H]2[C@H](CN1C(=O)[C@@H](NC(=O)NC1(CS(=O)(=O)C(C)(C)C)CCCCC1)C(C)(C)C)C2(C)C [Compound 698],75 to 250 nM
3,C=CCNC(=O)C(=O)[C@H](CCCC)NC(=O)[C@@H]1[C@@H]2[C@H](CN1C(=O)[C@@H](NC(=O)NC1(CS(=O)(=O)C(C)(C)C)CCCCC1)C(C)(C)C)C2(C)C [Compound 699],< 75 nM
4,C=CCNC(=O)C(=O)[C@@H](CCC1CC1)NC(=O)[C@@H]1[C@@H]2[C@H](CN1C(=O)[C@@H](NC(=O)NC1(CS(=O)(=O)C(C)(C)C)CCCCC1)C(C)(C)C)C2(C)C [Compound 700],< 75 nM
5,C=CCNC(=O)C(=O)[C@H](CC1CC1)NC(=O)[C@@H]1[C@@H]2[C@H](CN1C(=O)[C@@H](NC(=O)NC1(CS(=O)(=O)C3CCCC3)CCCCC1)C(C)(C)C)C2(C)C [Compound 702],< 75 nM
6,C=CCNC(=O)C(=O)[C@H](CCC1CC1)NC(=O)[C@@H]1[C@@H]2[C@H](CN1C(=O)[C@@H](NC(=O)NC1(CS(=O)(=O)C3CCCC3)CCCCC1)C(C)(C)C)C2(C)C [Compound 703],< 75 nM
7,CCC[C@H](NC(=O)[C@@H]1[C@@H]2[C@H](CN1C(=O)[C@@H](NC(=O)NC1(CS(=O)(=O)C3CCCC3)CCCCC1)C(C)(C)C)C2(C)C)C(=O)C(=O)NC1CC1 [Compound 704],< 75 nM
8,C=CCNC(=O)C(=O)C(CCC1CC1)NC(=O)[C@@H]1[C@@H]2[C@H](CN1C(=O)[C@@H](NC(=O)NC1(CS(=O)(=O)C(C)(C)COC3CCCCO3)CCCCC1)C(C)(C)C)C2(C)C (stereo partly drawn) [Compound 705],< 75 nM
9,CC(C)(C)[C@H](NC(=O)NC1(CS(=O)(=O)C(C)(C)COC2CCCCO2)CCCCC1)C(=O)N1C[C@H]2[C@@H]([C@H]1C(=O)NC(CCC1CC1)C(=O)C(=O)NC1CC1)C2(C)C (stereo partly drawn) [Compound 706],< 75 nM
10,CCCC(NC(=O)[C@@H]1[C@@H]2[C@H](CN1C(=O)[C@@H](NC(=O)NC1(CS(=O)(=O)C(C)(C)COC3CCCCO3)CCCCC1)C(C)(C)C)C2(C)C)C(=O)C(=O)NC1CC1 (stereo partly drawn) [Compound 707],< 75 nM
11,C=CCNC(=O)C(=O)C(CCC)NC(=O)[C@@H]1[C@@H]2[C@H](CN1C(=O)[C@@H](NC(=O)NC1(CS(=O)(=O)C(C)(C)COC3CCCCO3)CCCCC1)C(C)(C)C)C2(C)C (stereo partly drawn) [Compound 708],< 75 nM
12,C=CCNC(=O)C(=O)C(CCC1CC1)NC(=O)[C@@H]1[C@@H]2[C@H](CN1C(=O)[C@@H](NC(=O)NC1(CS(=O)(=O)C(C)(C)CO)CCCCC1)C(C)(C)C)C2(C)C (stereo partly drawn) [Compound 709],< 75 nM
13,CC(C)(C)[C@H](NC(=O)NC1(CS(=O)(=O)C(C)(C)CO)CCCCC1)C(=O)N1C[C@H]2[C@@H]([C@H]1C(=O)NC(CCC1CC1)C(=O)C(=O)NC1CC1)C2(C)C (stereo partly drawn) [Compound 710],< 75 nM
14,C=CCNC(=O)C(=O)C(CCC1CC1)NC(=O)C1C2C(CN1C(=O)C(NC(=O)NC1(C[S@TB4](=O)(=O)C3(C)CCCCC3)CCCCC1)C(C)(C)C)C2(C)C (stereo not drawn) [Compound 711],< 75 nM
15,C=CCNC(=O)C(=O)C(CC1CC1)NC(=O)C1C2C(CN1C(=O)C(NC(=O)NC1(C[S@TB4](=O)(=O)C3(C)CCCCC3)CCCCC1)C(C)(C)C)C2(C)C (stereo not drawn) [Compound 712],< 75 nM
16,C#CCNC(=O)C(=O)[C@H](CCC1CC1)NC(=O)[C@@H]1[C@@H]2[C@H](CN1C(=O)[C@@H](NC(=O)NC1(CS(=O)(=O)C(C)(C)C)CCCCC1)C(C)(C)C)C2(C)C [Compound 721],< 75 nM
17,C=CCNC(=O)C(=O)[C@H](CC1CC1)NC(=O)[C@@H]1[C@@H]2[C@H](CN1C(=O)[C@@H](NC(=O)NC1(CS(=O)(=O)C(C)(C)C)CCCCC1)C(C)(C)C)C2(Cl)Cl [Compound 722],< 75 nM
18,CCC[C@H](NC(=O)[C@@H]1[C@@H]2[C@H](CN1C(=O)[C@@H](NC(=O)NC1(CS(=O)(=O)C(C)(C)C)CCCCC1)C(C)(C)C)C2(Cl)Cl)C(=O)C(=O)NC1CC1 [Compound 723],< 75 nM
19,C=CCNC(=O)C(=O)[C@H](CCCC)NC(=O)[C@@H]1CC2(CN1C(=O)[C@@H](NC(=O)NC1(CS(=O)(=O)C(C)(C)C)CCCCC1)C(C)(C)C)SCCCS2 [Compound 728],< 75 nM
20,C=CCNC(=O)C(=O)[C@H](CC1CC1)NC(=O)[C@@H]1[C@@H]2[C@H](CN1C(=O)[C@@H](NC(=O)NC1(C3CCCCS3(=O)=O)CCCCC1)C(C)(C)C)C2(C)C (stereo partly drawn) [Compound 729],< 75 nM
